Assay results as given in ChEMBL document CHEMBL4888484, “Replenishing the malaria drug discovery pipeline: Screening and hit evaluation of the MMV Hit Generation Library 1 (HGL1) against asexual blood stage Plasmodium falciparum ,using a nano luciferase reporter read-out” (2022).
Screen size: about 150,000 compounds; about 540 (0.36%) showed an effect of 50% or more. This is one part of the list.

These compounds were tested on Plasmodium falciparum (assay: Primary screen in NF54 nanoGlo assay, in single point, at 2uM, 72h; a lower Z score goes with more inhibition). Conditions: timepoint 72 hour.
Type: functional, Erythrocyte

Row | Structure (SMILES) | % Inhibition [%] | Z score
1 | Cc1cc(N2CCC(COc3cc(C4CC4)ncn3)CC2)n2ncnc2n1 | 5 | -0.54
2 | O=C(c1cccc(N2CCCC2=O)c1)N(Cc1cccc(OCc2ccc3c(c2)OCO3)c1)Cc1ccccn1 | -12 | 1.64
3 | CCCN1CCC[C@H](CCNC(=O)c2ccc(C#N)nc2)C1 | 1 | -0.13
4 | CCOc1ncccc1C(=O)N(C)[C@H]1CCN(C(C)C)C1 | 4 | -0.51
5 | CN1CCC(N(C)C(=O)NC2CCCN(Cc3c(F)cccc3F)C2)C1=O (stereo unspecified) | 14 | -1.84
6 | COc1cccc(-c2ccc(N3CCCN(C(=O)CN(CC4CC4)C(=O)c4ccccc4F)CC3)nn2)c1 | -14 | 1.84
7 | O=C(c1cc(-c2ccc(F)cc2)n[nH]1)N1CCC(N2CCC[C@H](O)C2)CC1 | 0 | -0.03
8 | CC(C)[C@@H]1N(C(=O)c2cc3n(n2)CCN(C)S3(=O)=O)CC1(C)C | 0 | 0.06
9 | Cc1nc(NC(=O)c2ccc(Cl)c(-n3cnnn3)c2)sc1C | -1 | 0.15
10 | O=S(=O)(NCCc1nnc[nH]1)c1ccc(Cl)cc1 | 34 | -3.86
11 | O=c1c2cncnc2ccn1Cc1noc2c1CCCC2 | -3 | 0.3
12 | CC(C)Cc1ccc(C(=O)NCc2cc(=O)[nH]c(=O)[nH]2)s1 | -4 | 0.71
13 | Cc1cc(C(=O)N2CC[C@H](OC(F)F)C2)c(C)n1C1CC1 | -5 | 0.64
14 | Cc1nc(CC(C)C)cc(C(=O)N[C@H]2CCN(Cc3cccnc3)C[C@@H]2O)n1 | -10 | 1.3
15 | Cc1nn(C)cc1[C@H](C)Nc1ccc(C(=O)Nc2ccccc2)nn1 | -9 | 1.66
16 | CC(C)COc1ccccc1-c1nc(N(C)C)ns1 | -1 | 0.18
17 | CCOC(=O)C1CCN(c2nc(-c3cccc(Cl)c3)c3c(N)n(-c4cccc(F)c4)nc3n2)CC1 | -3 | 0.38
18 | O=C(NCc1ccc(Cl)cc1)c1nn[nH]c1Nc1cccc(F)c1 | -1 | 0.1
19 | O=C(NCC1CCCCCC1)c1ccc(-c2ccc(F)c(F)c2)s1 | -10 | 1.18
20 | Cc1cccn2c(CN3CCC[C@H](CC(N)=O)C3)cnc12 | -4 | 0.63
21 | COC(=O)[C@H]1CC(=O)N(OCc2ccc3ccccc3c2)C12CCN(Cc1cc3ccccc3[nH]1)CC2 | -11 | 1.7

Row | Structure (SMILES) | % Inhibition [%] | Z score
22 | CCn1nccc1S(=O)(=O)N1CCC[C@H](CNC(=O)c2cccnc2)C1 | -9 | 1.55
23 | CN(C)CCn1nccc1C(=O)N[C@H]1C[C@H](c2ccc(F)cc2F)C1 | 9 | -1.43
24 | Cc1cc2c(N3CCC[C@H](N4CCNCC4=O)C3)nccn2n1 | 4 | -0.57
25 | Cc1nn(C(C)(C)C)c(C)c1C(=O)N1CCC(C(=O)Nc2ccc3c(c2)OCO3)CC1 | 1 | -0.06
26 | CC1(C)OCC[C@@H]1CNC(=O)NCc1ccc(C2CC2)cc1F | -7 | 1.3
27 | CS(=O)(=O)NC[C@H]1OC[C@@H](N(Cc2ccccc2)Cc2ccccc2)[C@@H]1O | -8 | 1.36
28 | CN(C)c1noc(C2CCN(C(=O)c3ccc4nccn4c3)CC2)n1 | -9 | 1.4
29 | CCOc1ccc(NC(=O)Cn2nc3c(Oc4ccc(C)cc4)nc4ccccc4n3c2=O)cc1 | -15 | 2.09
30 | c1ccc(-c2nc(-c3ccc(N4CCOCC4)cc3)no2)nc1 | 1 | -0.23
31 | CC(C)c1cnc(Cn2nc3ccccn3c2=O)o1 | -3 | 0.59
32 | c1ccc(COc2ccc([C@H]3C[C@@H](c4ccccc4)Nc4ncnn43)cc2)cc1 | -4 | 0.53
33 | Cc1c(C#N)c(NC(=O)CN(C)C2CCN(c3ccccn3)CC2)n(Cc2ccco2)c1C | -1 | 0.1
34 | O=C(Cc1ccc(CO)cc1)NCc1cccnc1Oc1ccc(F)c(F)c1 | 10 | -1.39
35 | O=c1ccc(-c2noc(/C=C/c3ccccc3Cl)n2)c[nH]1 | -14 | 2.65
36 | CC(=O)N1CCN(c2nc(C3CCOCC3)nc3c2cnn3-c2ccccc2)CC1 | 0 | -0.06
37 | O=C(CCC1CCN(Cc2cccc3nonc23)CC1)NCc1cccnc1 | 3 | -0.56
38 | O=C(NCc1ccccc1F)c1c(O)c2cnn(Cc3ccccc3)c2[nH]c1=O | 1 | -0.19
39 | COc1ccc(-c2cnnc(NC[C@H](C)c3ccccc3)n2)cc1 | -9 | 1.26
40 | CN(C)Cc1ccc(-c2cccc3c2CNC3=O)cc1F | 1 | -0.1
41 | Cc1cccc(OCc2nc(C(=O)NC[C@H]3CCCO3)cs2)c1 | -8 | 1.54
42 | FC(F)Cn1c(Cc2ccccn2)nnc1N1CCC2(CCCCC2)CC1 | 3 | -0.65

Row | Structure (SMILES) | % Inhibition [%] | Z score
43 | CC(c1nccs1)N(C)C(=O)CC1(c2cccc(F)c2)CC(=O)N(CCN(C)C)C1=O (stereo unspecified) | -8 | 1.31
44 | CN1CC(=O)N(c2cccc(C(=O)NC3CC3)c2)C1=O | -4 | 0.84
45 | Cc1cccc(C)c1C(=O)NCC(C)(C)CCS(C)(=O)=O | -9 | 1.18
46 | O=C(NCC1(O)CCCCCC1)c1ccccc1 | 0 | -0.05
47 | c1cc(CN2CCN(c3ncnc4c3CCCC4)CC2)ccn1 | -5 | 0.71
48 | O=C(CS(=O)(=O)c1ccc(Br)cc1)N1CCCC1 | -10 | 0.86
49 | C[C@H](NCC(C)(C)c1ccccc1Br)c1nccs1 | 2 | -0.17
50 | CCOC(=O)[C@@H]1CCCCN1S(=O)(=O)C1(C)CC1 | -2 | 0.29
51 | Cc1c(-c2ccccc2)nn2c(=O)cc(CCc3ccccc3F)[nH]c12 | -20 | 1.8
52 | COc1ccc(-c2c(N)n(CCc3ccccc3)c(=O)c3ccccc23)cc1OC | 4 | -0.5
53 | CC(C)N1C[C@H]2CN(C(=O)Cc3ccccc3Cl)C[C@@]2(C(=O)N2CCCC2)C1 | -8 | 1.52
54 | O=C(NCCc1ccc(C2CCCCC2)cc1)[C@@H]1CNCCO1 | -8 | 0.78
55 | Cc1c(NC(C)C2CCOC2)cccc1N(C)C (stereo unspecified) | -7 | 0.98
56 | CN1CCN(c2nc(N)nc(N)c2S(=O)(=O)c2ccccc2)CC1 | 2 | -0.25
57 | COCCOCCNC(=O)c1nc(C)sc1Br | -6 | 0.94
58 | O=C(Cn1cnc2ccccc2c1=O)NCc1cn(-c2cccnc2)nn1 | 4 | -0.56
59 | O=S(=O)(CCc1ccc2c(c1)CCO2)N1CCC[C@H]1c1cccc(F)c1 | -4 | 0.58
60 | C[C@H](NC(=O)N1CC2COCC(C1)O2)c1ccc(Br)cc1F | 4 | -0.37
61 | Cc1cc(CNC(=O)CCN2Cc3cc(Cl)ccc3O[C@@H](C)C2)nn1C | 9 | -1.63
62 | CCOn1c(-c2ccc(F)cc2)nc2c1OC=NN2OCc1ccccc1 | 35 | -0.68
63 | Cc1nc2ccc(-c3nc(C(C)C)nn3CCO)cc2nc1C | -4 | 0.45

Row | Structure (SMILES) | % Inhibition [%] | Z score
64 | Cc1cccc(N2C(=O)CN(Cc3ccccc3C)[C@H]3CS(=O)(=O)C[C@H]32)c1 | -3 | 0.46
65 | CC(C)n1ncc(C(=O)N2CCCOc3ccccc32)c1Cl | 7 | -0.68
66 | COCCCN1Cc2cc(NC(=O)c3ccccc3)ccc2O[C@@H](C)C1=O | 1 | -0.15
67 | c1cnn(CCNCc2csc(C3CCCC3)n2)c1 | 0 | 0.01
68 | CCOC(=O)c1[nH]c(C)c(C(=O)N2CCC(CC(=O)NCc3cccnc3)CC2)c1C | -22 | 1.92
69 | CCNC(=O)N[C@H]1CO[C@H]2[C@@H]1OC[C@@H]2Nc1nccc(-c2ccc(-c3ccccc3)cc2)n1 | 36 | -0.96
70 | CC(C)c1cccc(N(C)Cc2nnc(C3CCC3)o2)c1 | -14 | 1.19
71 | CC1(C)[C@@H](C(=O)NCc2cncc(O)c2)[C@@H]1c1ccccc1 | -11 | 1.49
72 | CCCN1CC[C@H](CNC(=O)c2cnn(Cc3ccccc3)c2)C1 | 30 | -3.38
73 | CCCCN1CCN([C@@H](C(=O)NCc2nccs2)c2ccccc2)C(=O)C1=O | -15 | 2.84
74 | CCc1nc(C)c(CN2CCC(CCC(=O)Nc3ccccc3Cl)CC2)[nH]1 | -9 | 1.01
75 | Nc1[nH]nc(C(=O)N[C@H]2CCOC[C@@H]2Oc2ccccn2)c1Cl | -11 | 1.29
76 | CNC(=O)[C@H]1CCN(Cc2cnc3c(-c4ccccc4)cnn3c2)C1 | -13 | 1.63
77 | CC(C)c1nnc(NC(=O)C2=NN(c3ccccc3)C(=O)CC2)s1 | -4 | 0.4
78 | CCN(CC(C)C(=O)O)C(=O)COC1CCCCC1C (stereo unspecified) | -6 | 0.54
79 | CN(C)c1ccc(CN2CC(N3CCCCC3)C2)cn1 | -13 | 1.82
80 | COc1ccccc1N1CCN(C(=O)c2cc(C3CC3)[nH]n2)CC1 | 0 | -0.04
81 | Cc1cc(C)cc(NC(=O)N2C[C@H](c3nc(C)no3)C3(CCOCC3)C2)c1 | -1 | 0.18
82 | CN(Cc1cccc(=O)[nH]1)C(=O)Nc1cc2c([nH]c1=O)CCCC2 | -16 | 3.1
83 | C[C@H](NC(N)=O)C(=O)NCCc1cccc(Cl)c1 | -6 | 0.74
